Assay results: PubChem BioAssay (Tox21)
Values joined by “and” are separate entries in the source; they are usually repeats but may differ in a detail not shown here. Equal entries are not always repeated. This list was built around the results that the source calls inconclusive (neither active nor inactive); the mix of calls is not that of the screen. Potencies beside an inconclusive call are fits to weak or partial responses and may not hold up. The source holds several records for some structures; these can differ, active in one and inactive in another. Active and inactive are the calls of the source. The call rests on the fitted dose curve; in most records, active means well fitted cell-killing curve with a large enough effect in the repeat runs; inconclusive means weak or mixed curves, or effect the other way; inactive means flat fitted curve, though single readings scatter.

Assay: qHTS RealTime-Glo MT Cell Viability Assay in HEK293 cells - 24 hour (AID 1224886); further: nearly all actives have a fitted effect of over 50% in size; on activity change, negative = cytotoxicity: top concentration of the series differs between compounds
Conditions: RealTime-Glo luminescence; series mostly up to 76.8 µM; activity change, negative = cytotoxicity: at the top concentration
Text: National Center for Advancing Translational Sciences [NCATS]
NIH Chemical Genomics Center [NCGC]
U.S. Environmental Protection Agency [EPA]
National Institutes of Environmental Health Sciences [NIEHS]
National Toxicology Program [NTP]
U.S. Food and Drug Administration [FDA]
Measure of cell viability is critical in the cell-base assay. Analysis of cell viability is necessary for the characterization of cell responses to cytotoxic drugs and environmental stress. A RealTime-Glo MT Cell Viability Assay to monitor cell viability in real time of continues cell culture during 40 hours of compound treatment was used to screen Tox21 10K library compounds in Hek293 cells. The RealTime-Glo MT Cell Viability Assay is a nonlytic, homogeneous, bioluminescent method to measure cell viability in real time using a simple, plate-based method. The assay involves adding NanoLuc luciferase and a cell-permeant prosubstrate to cells in culture. Viable cells reduce the proprietary prosubstrate to generate a substrate for NanoLuc luciferase. This substrate diffuses from cells into the surrounding culture medium, where it is rapidly used by the NanoLuc Enzyme to produce a luminescent signal. The signal correlates with the number of viable cells, making the assay well suited for cytotoxicity studies.
Tox21 Assay Protocol Summary:
The mixture of Hek293 cell suspension and reagents were dispensed at 600cells/6 ul/well in 1536-well tissue culture treated black solid bottom plates using a Multidrop dispenser. After the assay plates were incubated at a 37 C/5% CO2 incubator for 5 hours, 23 nL of compounds dissolved in DMSO, positive and negative controls was transferred to the assay plate by a pintool work station. The plates were incubated at 37 C for 40 hours. The luminescence intensity were measured at 0h, 8h, 16h, 24h, 32h and 40h time points using ViewLux plate reader during compound treatment.
On the % scale 0 is the no-effect control and ±100 the full control effect; potency means the concentration at half of the fitted maximal effect; tags describe the fitted curve by direction and shape.

Compound	Potency	activity change, negative = cytotoxicity
CN1C[C@H](C(=O)N[C@]2(C)O[C@@]3(O)[C@@H]4CCCN4C(=O)[C@H](Cc4ccccc4)N3C2=O)C=C2c3cccc4[nH]cc(c34)C[C@H]21	inconclusive: 49.2 µM [cytotoxic, partial curve]	–
Brc1ccc(Oc2cc(Br)c(Br)cc2Br)c(Br)c1	inconclusive: 44 µM [cytotoxic, partial curve]	–
FC(F)(F)c1ccc(Cl)cc1	inactive	–
O=C(O)C(F)(F)C(F)(F)C(F)(F)C(F)(F)C(F)(F)C(F)(F)C(F)(F)F	inactive	–
CCCCC(CC)COC(=O)Cl (stereo not given)	inactive and inconclusive: 54.9 µM [cytotoxic, partial curve, poor fit]	–
c1ccc(P(c2ccccc2)c2ccccc2)cc1	inconclusive: 44.5 µM [cytotoxic, partial curve, poor fit]	–
C[C@]12CCC(=O)C[C@@H]1CC[C@@H]1[C@@H]2CC[C@]2(C)[C@@H](O)CC[C@@H]12	inconclusive: 17.4 µM [cytotoxic, partial curve]	–
Oc1ccc(C(c2ccc(O)cc2)(C(F)(F)F)C(F)(F)F)cc1	active: 43.4 µM and inconclusive: 43.6 µM [cytotoxic, single point]	–
N#Cc1sc2c(=O)c3ccccc3c(=O)c=2sc1C#N	active: 15.5 µM	–
NC(=O)OCCCc1ccccc1	–	inactive: -1.3% [at 35.3 µM]
CCCC[P+](CC)(CCCC)CCCC (tested in a mixture with another compound)	inconclusive: 34.9 µM [cytotoxic, partial curve]	–
ClC1C(Cl)C(Cl)C(Cl)C(Cl)C1Cl (stereo not given)	inconclusive: 44.5 µM [cytotoxic, partial curve] and inconclusive: 24.5 µM [cytotoxic, partial curve, poor fit]	–
[CH3][Sn]([CH3])([Cl])[Cl]	inconclusive: 2.22 µM [rising, full curve] and inconclusive: 1.95 µM [rising, full curve]	–
C#CCOS(=O)OC1CCCCC1Oc1ccc(C(C)(C)C)cc1 (stereo not given)	active: 15.5 µM and active: 19.5 µM	–
CCC[CH2][Sn]([CH2]CCC)([CH2]CCC)[O]C(=O)c1ccccc1	active: 0.389 µM	–
Nc1ccccc1C(=O)OCCc1ccccc1	inconclusive: 39.1 µM [cytotoxic, partial curve]	–
Cc1ccc([N+](=O)[O-])[c]2c1[O][Hg]2	active: 3.38 µM	–
COC(=O)NC(=S)Nc1ccccc1NC(=S)NC(=O)OC	inactive	–
CCC[CH2][Sn]([CH2]CCC)([CH2]CCC)[CH2]CCC	active: 9.77 µM	–
CC(C)[C@@H](C(=O)O[C@@H](C#N)c1cccc(Oc2ccccc2)c1)c1ccc(Cl)cc1	inconclusive: 24.9 µM [cytotoxic, partial curve] and inconclusive: 54.9 µM [cytotoxic, single point]	–

Compound	Potency	activity change, negative = cytotoxicity
CC1CCC(C(C)C)C(OC(=O)c2ccccc2N)C1 (stereo not given)	active: 34.2 µM	–
Sc1ccccc1	inconclusive: 39.4 µM [cytotoxic, partial curve]	–
O=[N+]([O-])c1ccc(F)c([N+](=O)[O-])c1	inconclusive: 35 µM [cytotoxic, partial curve]	–
CCc1nn(C)c(C(=O)NCc2ccc(C(C)(C)C)cc2)c1Cl	active: 0.049 µM	–
CC(C)(C)c1cc(O)ccc1O	inconclusive: 4.9 µM [rising, full curve] and inconclusive: 7.76 µM [rising, full curve]	–
CN1CSC(=S)N(C)C1	active: 17.3 µM and active: 24.5 µM	–
Nc1ccc(-c2ccc(N)c(N)c2)cc1N	inconclusive: 48.8 µM [cytotoxic, partial curve]	–
C1=Cc2cccc3cccc1c23	inconclusive: 15.2 µM [rising, partial curve, poor fit]	–
O=[N+]([O-])c1ccc(O)c([N+](=O)[O-])c1	inconclusive: 19.5 µM [rising, partial curve]	–
C[C@]12CC[C@@H]3c4ccc(OC(=O)N(CCCl)CCCl)cc4CC[C@H]3[C@@H]1CC[C@@H]2O	–	inactive: -0.722% [at 35.3 µM]
C[C@]12CC[C@H](O)CC1=CC[C@@H]1[C@@H]2CC[C@]2(C)C(=O)CC[C@@H]12	inconclusive: 49 µM [cytotoxic, partial curve] and inconclusive: 43.6 µM [cytotoxic, partial curve]	–
CNP(=O)(OC)Oc1ccc(C(C)(C)C)cc1Cl (stereo not given)	inconclusive: 34.7 µM [cytotoxic, partial curve]	–
O=C(NC(=O)c1c(F)cccc1F)Nc1ccc(Oc2ccc(C(F)(F)F)cc2Cl)cc1F	active: 24.5 µM	–
CCOC(=O)c1cn2nc(OP(=S)(OCC)OCC)cc2nc1C	active: 17.4 µM	–
c1ccc2c(c1)cc1ccc3cccc4ccc2c1c34	inconclusive: 31.5 µM [cytotoxic, partial curve, poor fit]	–
O=C(CCl)CCl	active: 18 µM and active: 19.5 µM	–
CCC[CH2][Sn]([CH2]CCC)([CH2]CCC)[O][Sn]([CH2]CCC)([CH2]CCC)[CH2]CCC	active: 0.191 µM	–
O=C(Nc1ccc(Br)cc1)c1cc(Br)cc(Br)c1O	inconclusive: 24.5 µM [cytotoxic, full curve] and inconclusive: 21.9 µM [cytotoxic, partial curve]	–
ClC(Cl)=C(c1ccc(Cl)cc1)c1ccc(Cl)cc1	inconclusive: 56.3 µM [cytotoxic, single point] and inconclusive: 49 µM [cytotoxic, single point]	–
Brc1cccc(-c2ccccc2)c1	–	inactive: -13.1%
